The other results are listed elsewhere or left out.
The sequences below were run on PF3D7_0420300 AP2 domain 1 (GST-tagged) (assay: gcPBM binding intensity (ln(normalized median fluorescence intensity)); higher = stronger DNA binding).
Outline: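 The binding buffer was 1× PBS containing 1% milk, 0.2 mg/ml BSA, 0.5% salmon testes DNA and 0.03% Triton X-100. In it, GST-tagged P. falciparum DNA-binding domains expressed in E. coli were applied for 1 h to an Agilent 4 × 180k array of primer-extended double-stranded 36-bp intergenic genomic probes plus negative controls. Binding intensity, read with Alexa488 anti-GST antibody and a 488 nm scan, is the highest Masliner-normalised natural-log median intensity across replicate spots of either probe orientation.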

| Sequence | gcPBM binding intensity (ln) |
| --- | --- |
| ATTCATAATATTATAACACACGCTTATTACATAAAG [CACACA_site980] | 9.28 |
| CGCATGTATTTTGTGTGTACTAATTATAATCAACTT [XGTACX_site4709] | 9.62 |
| TTTTACATATACATGTGTACATAACAAAGAATGTTT [XGTACX_site2406] | 9.11 |
| TAATATTGTATTTATGTACACACATTTTTGGAATAT [CACACA_site8371] | 9.47 |
| TTTTTTAATAAATGGTGTACATATTTTTTTTATACT [XGTACX_site8584] | 9.24 |
| AGTGTATTAATTCTCACACACTAAGAAAAAAAAAAA [CACACA_site6007] | 9.23 |
| CTATTTTTTGTATAAACATGCATATAGTAGATATGG [TGCATGCA_site670] | 9.01 |
| TTTAATATTTTTTTTTGTACTTATTTGTAGAAATAT [XGTACX_site3046] | 9.11 |
| AGGCTCATTTTTTTTAGTACATCAAAAAAAAAAAAA [TGCATGCA_negctrl_site591] | 8.7 |
| AAATTCATATGAATTTGTACGGACATAAATATCTTC [XGTACX_site1838] | 9.19 |
| TGTATGTTTATTTGATGTACGGTCATACATATAAAT [XGTACX_site5176] | 9.15 |
| ATATATATATAGTGCACACATATAAAATATATATAA [CACACA_site2745] | 9.36 |
| TTTACAGATACTTGCTCACACATATGTATAAAAATA [CACACA_site4928] | 9.12 |
| TATAATATATATAGGAGTACGTATGTATATTTATAA [XGTACX_site3521] | 9.37 |
| TATATATAAAACATATGTACATATATATATATATAT [XGTACX_site419] | 9.22 |
| AATAGTTAAATGTACACACTAACTACATGGAATATA [CACACA_site3262] | 9.48 |
| ACATGAAACTATAAACGTACATACATACATATATAT [XGTACX_site5011] | 9.45 |
| ATATTTTATAATTTTACACACCATATAAAATAATTC [CACACA_site2797] | 9.25 |
| AAGTAAAAAAATAGCACACACACAAAAACACCCACA [CACACA_site1291] | 10 |
| TGAGCACAAATACAGGTGCATATAAAATATATGACG | 9.18 |
| AGAGGCCAGCTTTCTCTTCTAAACATGTACAAAAAT [GTGCAC_negctrl_site98] | 8.93 |
| AAAAAAATAAAATGTTCACACATTTCACAATTACTT [CACACA_site4859] | 9.2 |
| ATTTAATTTATTATGTGTACTTATTTAATTAAATTA [XGTACX_site3171] | 9.22 |
| CTGATATATAGATGTAGTACATAAAAATGACGAATT [XGTACX_site5612] | 9.44 |
| TTATATATTTATAAATGTACATATAATTTTTTTATA [XGTACX_site4696] | 9.01 |
